Assay results as given in publication PMC12421412 (2025).

What was measured:
Experiment in all cases: SPR
[1] = molecular target: T1, soluble wildtype SORLA ectodomain (Sortilin-related receptor with A-type repeats), hexa-His-tagged (human, UniProt Q92673 82-2137)
[2] = molecular target: T2, soluble mutant SORLA^N1358S ectodomain, hexa-His-tagged (human, UniProt Q92673 82-2137, N1358S)
[3] = molecular target: T1, soluble wildtype SORLA ectodomain …; remark: listed apart in the source
[4] = molecular target: T2, soluble mutant SORLA^N1358S ectodomain, …; remark: listed apart in the source

Kd [1]: 1000 nM
Kd [2]: 2000 nM
koff [3]: 0.0039 s⁻¹
koff [4]: 0.0025 s⁻¹
B1: ectodomain of APP^695 (amyloid precursor protein) (domain or fragment)
chain: not shown
